Reference: publication PMC9911399, “Two distinct binding modes provide the RNA-binding protein RbFox with extraordinary sequence specificity”
Residue numbers refer to the chain shown, from its start. Some of the results follow.

T1: RBFOX1 RRM (Homo sapiens, UniProt Q9NWB1 109-208)
T1 sequence: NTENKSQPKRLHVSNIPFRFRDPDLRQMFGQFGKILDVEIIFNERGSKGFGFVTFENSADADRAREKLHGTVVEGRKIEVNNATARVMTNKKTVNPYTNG

B1: GUGGCGG (DNA:RNA)
RNA: GGGAGACCGGAAUUCAGAUUGUCCGUGGCGGUUAAAUCCCGUCGUAGCCACCA
DNA 1: CAATCTGAATTCCGGTCTCCC
DNA 2: TGGTGGCTACGACGGGATT
B2: AACCGGG (DNA:RNA)
RNA: B1 RNA with G25A, U26A, G27C, G28C, C29G
DNA 1: CAATCTGAATTCCGGTCTCCC
DNA 2: TGGTGGCTACGACGGGATT
B3: CGCCCGC (DNA:RNA)
RNA: B1 RNA with G25C, U26G, G27C, G28C, G31C
DNA 1: CAATCTGAATTCCGGTCTCCC
DNA 2: TGGTGGCTACGACGGGATT
B4: GGACGGC (DNA:RNA)
RNA: B1 RNA with U26G, G27A, G28C, C29G, G31C
DNA 1: CAATCTGAATTCCGGTCTCCC
DNA 2: TGGTGGCTACGACGGGATT
B5: ACAAUUG (DNA:RNA)
RNA: B1 RNA with G25A, U26C, G27A, G28A, C29U, G30U
DNA 1: CAATCTGAATTCCGGTCTCCC
DNA 2: TGGTGGCTACGACGGGATT
B6: ACGGCGG (DNA:RNA)
RNA: B1 RNA with G25A, U26C
DNA 1: CAATCTGAATTCCGGTCTCCC
DNA 2: TGGTGGCTACGACGGGATT
B7: GAAUCUG (DNA:RNA)
RNA: B1 RNA with U26A, G27A, G28U, G30U
DNA 1: CAATCTGAATTCCGGTCTCCC
DNA 2: TGGTGGCTACGACGGGATT
B8: CUAACCG (DNA:RNA)
RNA: B1 RNA with G25C, G27A, G28A, G30C
DNA 1: CAATCTGAATTCCGGTCTCCC
DNA 2: TGGTGGCTACGACGGGATT
B9: GAGGGGU (DNA:RNA)
RNA: B1 RNA with U26A, C29G, G31U
DNA 1: CAATCTGAATTCCGGTCTCCC
DNA 2: TGGTGGCTACGACGGGATT
B10: GUUGUUA (DNA:RNA)
RNA: B1 RNA with G27U, C29U, G30U, G31A
DNA 1: CAATCTGAATTCCGGTCTCCC
DNA 2: TGGTGGCTACGACGGGATT
B11: CUCAAUU (DNA:RNA)
RNA: B1 RNA with G25C, G27C, G28A, C29A, G30U, G31U
DNA 1: CAATCTGAATTCCGGTCTCCC
DNA 2: TGGTGGCTACGACGGGATT
B12: CAUUAAA (DNA:RNA)
RNA: GGGAGACCGGAAUUCAGAUUGUCCCAUUAAAUUAAAUCCCGUCGUAGCCACCA
DNA 1: CAATCTGAATTCCGGTCTCCC
DNA 2: TGGTGGCTACGACGGGATT
B13: AGCGCAA (DNA:RNA)
RNA: B12 RNA with C25A, A26G, U27C, U28G, A29C
DNA 1: CAATCTGAATTCCGGTCTCCC
DNA 2: TGGTGGCTACGACGGGATT
B14: CCUGUGC (DNA:RNA)
RNA: B12 RNA with A26C, U28G, A29U, A30G, A31C
DNA 1: CAATCTGAATTCCGGTCTCCC
DNA 2: TGGTGGCTACGACGGGATT
B15: CGAUCGG (DNA:RNA)
RNA: B1 RNA with G25C, U26G, G27A, G28U
DNA 1: CAATCTGAATTCCGGTCTCCC
DNA 2: TGGTGGCTACGACGGGATT
B16: UUCAGGC (DNA:RNA)
RNA: B1 RNA with G25U, G27C, G28A, C29G, G31C
DNA 1: CAATCTGAATTCCGGTCTCCC
DNA 2: TGGTGGCTACGACGGGATT
B17: GGUGAGA (DNA:RNA)
RNA: B12 RNA with C25G, A26G, U28G, A30G
DNA 1: CAATCTGAATTCCGGTCTCCC
DNA 2: TGGTGGCTACGACGGGATT
B18: UGAAAAG (DNA:RNA)
RNA: B12 RNA with C25U, A26G, U27A, U28A, A31G
DNA 1: CAATCTGAATTCCGGTCTCCC
DNA 2: TGGTGGCTACGACGGGATT
B19: CCUACCA (DNA:RNA)
RNA: B12 RNA with A26C, U28A, A29C, A30C
DNA 1: CAATCTGAATTCCGGTCTCCC
DNA 2: TGGTGGCTACGACGGGATT
B20: GCGUUAC (DNA:RNA)
RNA: B12 RNA with C25G, A26C, U27G, A29U, A31C
DNA 1: CAATCTGAATTCCGGTCTCCC
DNA 2: TGGTGGCTACGACGGGATT

Biological target: T1, RBFOX1 RRM
Test: EMSA; HiTS-Eq, 1 nM pool, 10 min; buffer printed only for the single-RNA assays: 10 mM Tris pH 7.5, 150 mM NaCl, 3.4 mM EDTA, 0.001% NP-40, 30 C
Details: tags: His6 N-terminal (pET28a); label: 5' 32P
In short: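 A pool of RNA with 7 randomized nucleotides, 5′-radiolabelled and with DNA-annealed flanks, was equilibrated at 1 nM for 10 min in 50 µL with purified RbFox RRM, wild type or mutant, across increasing protein concentrations. Free RNA was separated by 8% native PAGE, excised, reverse-transcribed, barcoded by PCR and sequenced. Relative association constants were obtained from read-count changes of each RNA species versus the control reaction and normalised to the cognate motif.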

| Binder | binding signal |
| --- | --- |
| B1 | 0.0226 KA relative to UGCAUGU |
| B2 | 0.00402 KA relative to UGCAUGU |
| B3 | 0.0134 KA relative to UGCAUGU |
| B4 | 0.0213 KA relative to UGCAUGU |
| B5 | 0.00769 KA relative to UGCAUGU |
| B6 | 0.0186 KA relative to UGCAUGU |
| B7 | 0.0153 KA relative to UGCAUGU |
| B8 | 0.00358 KA relative to UGCAUGU |
| B9 | 0.0189 KA relative to UGCAUGU |
| B10 | 0.0141 KA relative to UGCAUGU |
| B11 | 0.00356 KA relative to UGCAUGU |
| B12 | 0.000938 KA relative to UGCAUGU |
| B13 | 0.00715 KA relative to UGCAUGU |
| B14 | 0.0232 KA relative to UGCAUGU |
| B15 | 0.0141 KA relative to UGCAUGU |
| B16 | 0.0127 KA relative to UGCAUGU |
| B17 | 0.00596 KA relative to UGCAUGU |
| B18 | 0.0154 KA relative to UGCAUGU |
| B19 | 0.00055 KA relative to UGCAUGU |
| B20 | 0.0111 KA relative to UGCAUGU |
